In ChEMBL document CHEMBL4888484, “Replenishing the malaria drug discovery pipeline: Screening and hit evaluation of the MMV Hit Generation Library 1 (HGL1) against asexual blood stage Plasmodium falciparum ,using a nano luciferase reporter read-out” (2022):
Out of some 150,000 compounds screened, about 540 (0.36%) showed an effect of 50% or more. The list shows a part of the results.

Tested on: Plasmodium falciparum
Experiment: Primary screen in NF54 nanoGlo assay, in single point, at 2uM, 72h; a lower Z score goes with more inhibition
Format: functional, Erythrocyte
Settings: timepoint 72 hour

SMILES	% Inhibition [%]	Z score
O=C(O)C1=CCC(NC(=O)C(O)C2CCCCCCC2)C1 (stereo not given)	-19	2.4
Cc1cc(NC(=O)N(CCO)C(C)C)ccn1	-2	0.27
CC(C)c1ccc(NC(=O)Cn2nc3c(N4CCC[C@H](C)C4)nccn3c2=O)cc1	-11	1.75
C[C@H]1CC(=O)Nc2ccccc2N1C(=O)CN1CCN(S(=O)(=O)c2cccs2)CC1	-7	0.93
CN1C[C@@H](C(=O)N2CCc3ccccc32)CC1=O	-19	1.76
COc1cccc(C(=O)N2c3ccccc3[C@](C)(c3ccccc3)CC2(C)C)c1	2	-0.21
CCOc1ccc(-c2cc3c(=O)n(CCC(=O)NCc4ccccc4OCC)ccn3n2)cc1	3	-0.39
CCCCN(C)S(=O)(=O)NC[C@@H](c1ccco1)N(C)C	5	-0.65
COc1cc(CNCc2ccccn2)ccc1OCc1cccc(C)c1	-1	0.26
CCCN(Cc1cc(-c2ccccc2)on1)C(=O)c1cccs1	-7	1.3
O=C(NC1CCCCCCC1)c1cc[n+]([O-])cc1	6	-0.67
Cc1c(NC(=O)NCc2cc(C#N)ccc2F)ccc(F)c1N1CCNC1=O	-4	0.61
CCCc1ncc(C(=O)Nc2ccc(CN(C(C)=O)C3CC3)cc2)s1	-9	1.27
CCOc1cccc(OCC#CCN2CCN(C)CC2)c1	-22	2.39
O=C(NCc1ccc(F)cc1F)[C@H]1CCCN(Cc2ccco2)C1	1	-0.2
Cc1ccc(F)c(C(=O)N[C@@H]2COCC[C@@H]2OCC2CC2)c1F	-9	1.7
CCCNC(=O)NC(=O)COc1c(C)cc(Br)cc1Cl	-19	3.73
Cc1ccc(NC2COCCOC2)c(OC[C@H]2CCCO2)c1	2	-0.44
CCCC(=O)N(Cc1ccccc1)c1nc2c(OC)ccc(C)c2s1	0	0.04
O=C(Nc1ccccc1F)c1oc2ccccc2c1NC(=O)C1CCCC1	-3	0.54
O=C(NCCc1cc(C(F)(F)F)ccn1)[C@H]1[C@@H]2CCCO[C@@H]21	0	-0.05
O=C(CCC1CCCC1)Nc1nc[nH]n1	-8	1.03

SMILES	% Inhibition [%]	Z score
Cc1ccc(CC(=O)N2CC3(C[C@H](N4CCCC4)CO3)C2)cc1	-6	0.94
O=S(=O)(Cc1ccccc1)N1CCN2CCOC[C@@H]2C1	7	-1.41
CN(CC(=O)N[C@](C)(C#N)C1CC1)C1CCCCCC1	-2	0.29
CN1CCO[C@@H](CNc2cc(C(N)=O)ccn2)C1	4	-0.63
Cc1cnccc1N1CCN(C(=O)NCCCn2ncc3ccccc32)CC1	-17	2.3
CO[C@@H](Cn1c2c(cc(C#N)c1=O)CN(Cc1ccccc1)CC2)C1CCCC1	-2	0.33
CC1(CNC(=O)N2CC[C@H](CO)C2)CCCCCC1	-15	1.93
Cc1cc(CNCc2ccco2)c(C)n1-c1cc(S(=O)(=O)N2CCOCC2)ccc1N1CCCC1	20	-3.2
COCCCN(Cc1c(C)nn(-c2cccc(F)c2)c1N1CCN(C)CC1)C(=O)NC1CCCCC1	-3	0.36
Cn1c(C(=O)N2CCN(c3ccccn3)CC2)c(N2CCCC2=O)c2cc(F)ccc21	1	-0.12
CC1CN(C(=O)CN2CCCCC2Cn2cncn2)CCO1 (stereo not given)	-4	0.6
COc1ccc([C@@H]2CN(C(=O)Nc3nc(C)n(C)n3)CCO2)cc1	-6	1.08
CCc1nc2cc(N3CCCC(C(=O)NC(C)CC)C3)cnc2nc1CC (stereo not given)	0	0.08
CC(=O)N[C@H]1C[C@@H](c2cc(NCCc3ccccc3Cl)nc(C)n2)C1	0	-0.07
COc1ccc(-n2nc(C)c(CCC(=O)NCc3ccco3)c2Oc2ccccc2F)cc1	12	-1.19
Cc1ccc2c(c1)N(C(=O)c1coc(S(=O)(=O)N(C)C)c1)CCC2	-1	0.13
Cn1cc(C(=O)NCc2ccc3c(c2)nc(C2CC2)n3C)c(-c2ccoc2)n1	-8	0.81
C#CCNC(=O)NC1CCCC1n1ccnc1 (stereo not given)	-2	0.25
Cc1cc2c(C)c(C(=O)N3CCCCCC3)oc2c(S(=O)(=O)N2CCCc3ccccc32)c1C	-7	0.87
Cn1cnn(CC(=O)NC[C@H]2CCCC2(F)F)c1=O	-9	1.45
CCc1ccc(-c2n[nH]c(=O)c3c2CCCC3)cc1S(=O)(=O)NC1CCCCC1	0	-0.01
CCCN1CCN(Cc2ccc(C)c(F)c2C)[C@H]2CS(=O)(=O)C[C@H]21	-3	0.41

SMILES	% Inhibition [%]	Z score
CCN(CC)C(=O)C1(NCC2CCOCC2)CCCCC1	-5	0.64
CCC1(CC)C(OC)CC1N(C)Cc1ncc[nH]1 (stereo not given)	-10	1.36
Cc1cccc(OCC(=O)N[C@H]2CCCN(c3cc(-c4ccccc4)n[nH]3)C2)c1	-24	2.38
Cn1cc(S(=O)(=O)Nc2cc(CCc3ccccc3)[nH]n2)cn1	-11	1.44
CCC1CN(C(=O)c2cc3c(OC)cc(OC)c(OC)c3[nH]2)CC2(CCOC2)O1 (stereo not given)	0	0.05
COCCN1CC[C@H](NC(=O)NCc2nc(C)c(C)s2)C1	8	-1.19
COc1ccc(Cl)cc1NCc1ccccc1-c1nnc(-c2ccccc2Cl)o1	-5	0.81
Cc1ncnc(C)c1C(=O)NC[C@H]1CCCN(C(=O)c2ncoc2C)C1	-5	0.6
Cn1nccc1S(=O)(=O)N1CCC[C@H](c2nnc3ccccn23)C1	6	-0.91
N#Cc1[nH]c(=O)n(Cc2ccccc2)c1NCc1ccccc1	-16	2.96
CCC(CC)c1cc(NC(=O)c2cc(OC)no2)[nH]n1	-5	0.5
Cn1nc(CN(Cc2ccco2)C(=O)Nc2c(F)cccc2F)c2c1CCC2	8	-1.1
O=C(Nc1ccccc1C(=O)N1CCN(c2ccccc2O)CC1)c1cccs1	5	-0.98
Cn1nc(CN2CCOCC2)c2c1CCN(S(=O)(=O)c1ccc3c(c1)CCC3)C2	-11	2.04
O=C(Cc1ccc(N(Cc2cccc(F)c2)C(=O)C2CCCC2)cc1)NCC1CC1	-1	0.13
CCN1CCC(N(CCc2ccccn2)Cc2n[nH]c(C)c2Cl)CC1	-8	1.11
Cc1ccc2c(n1)N(C)[C@H](CO)CCN(Cc1ccc(Cl)cc1)C2	7	-1.14
CCC(=O)N1CCCN(C2CCC2)C[C@H]1c1nc(C)no1	-13	2.48
Cc1nc2c(N3CCC[C@@]4(CNC(=O)O4)C3)ncnc2o1	-11	1.56
C[C@H](CCOC(=O)C[N+]1(C)CCCCC1)CCc1ccccc1	11	-1.47
O=C(Cn1nc(-c2ccc(F)cc2)c2cnc3ccccc3c21)Nc1ccccc1	-14	1.23
CCOC(=O)C(OC(=O)CCNc1ccccc1)C1CCOC1 (stereo not given)	-9	1.6

SMILES	% Inhibition [%]	Z score
CCNC(=O)[C@H](C)NS(=O)(=O)c1cnnn1-c1ccccc1	23	-2.67
CC(C)NC(=O)Nc1ccc(N(C)C)c(CN(Cc2ccco2)C(=O)CC(C)(C)C)c1	-14	1.55
Cc1nn(CCNc2nnc(C(C)C)s2)c(C)c1C	-24	2.19
CCN(C(=O)c1cc(C)no1)c1ccc(F)c(F)c1	-3	0.45
Cc1nc(NC(=O)N2CCC(F)CC2)nn1C	-4	0.54
CCC(=O)Nc1c(-c2ccccn2)nsc1C(=O)NC1CCC(C)CC1 (stereo not given)	-12	1.16
Cc1nnc(C2CCCN2C(=O)N2C(C)CCCC2C)o1 (stereo not given)	-11	1.72
CCc1onc(C)c1NC(=O)N1CCOC(C)C1C (stereo not given)	-14	2.24
CCc1ccc(CN2C[C@@H]3c4ccc(OC)cc4OC[C@]3(CO)C2)o1	-17	2
CCc1noc(COCC(=O)N2CC(C)(C)c3ccc(Cl)cc32)n1	-12	1.43
C[C@]1(O)CCN(C(=O)Cc2ccc(O)cc2)C[C@H]1Cc1ccccc1	-8	1.5
Cc1nccn1-c1ncc(NC(=O)Cn2cnc3ccccc32)cn1	-4	0.68
O=C(c1ccco1)N1CCN(C(=O)c2ccco2)CC1	10	-1.63
COCC(C)(C)NC(=O)c1cnc2cc(=O)[nH]n2c1C	-9	1.22
Cc1cc(NS(=O)(=O)c2cnn(C(C)(C)C)c2)n(C)n1	-8	1.5
Cc1noc(C)c1CC(=O)N[C@H]1C[C@H](c2cc(=O)[nH]cn2)C1	-13	1.66
CC(=O)c1cn(CCn2cccn2)c(=O)n(C)c1=O	-5	0.72
COC[C@H](Nc1nccn2cnnc12)c1cccc(C(F)(F)F)c1	-2	0.33
CCN(Cc1nccn1C)C(=O)[C@@H](C)Cn1cncn1	7	-0.87
